# ± gives the standard deviation of the averaged measurements. The list shows a part of the results.
# Tested on: PfAP2-EXP AP2 domain (GST-tagged)
# Experiment: gcPBM binding intensity (ln(normalized median fluorescence intensity)); higher = stronger DNA binding
# How it was run: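 The highest Masliner-normalised natural-log median intensity across replicate spots of either probe orientation is reported as binding intensity. GST-tagged P. falciparum DNA-binding domains expressed in E. coli were applied for 1 h to an Agilent 4 × 180k array of primer-extended double-stranded 36-bp intergenic genomic probes plus negative controls, and bound protein was detected with Alexa488 anti-GST antibody and scanned at 488 nm.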
row,Sequence,gcPBM binding intensity (ln)
1,ATAAATATGGAGCACACACACATAAACATACCTATA [CACACA_site6336],8.77 ± 0.45
2,GATCTACATGAAAGGACACACAAATATATATATATA [CACACA_site84],9.96 ± 0.22
3,TAATTTTTGAAACACACACACATATATATATATATA [CACACA_site94],10.1 ± 0.43
4,AAAAAAGAATAGCACACACACATATATAAATATAAA [CACACA_site4518],8.64 ± 0.54
5,TTTAAATATATATTTAGTACTTATTCTTAAAATTTT [XGTACX_site624],8.47 ± 0.33
6,TTTTTTTTTTTTTGTGCATGTAGATTTATTGTTATA [TGCATGCA_site582],8.91 ± 0.35
7,GTTACATACAGATACACACACATATATATATATATA [CACACA_site4652],10.2 ± 0.15
8,GTAGAGGATTAAGAATGTACACATAAATACATATTT [XGTACX_site8874],8.49 ± 0.092
9,AATTATACATACATATATATATTTATATATATATAT [GTGCAC_negctrl_site462],9.64 ± 0.21
10,AAAAAAAAATATATATAAAATTAAAAAATGTAATAT [GTGCAC_negctrl_site581],8.53 ± 0.55
11,ATGGGTTGTTCAAATAGTACATATGTAGCCCACCAT [XGTACX_site3735],8.85 ± 0.48
12,TTATATCCCGTCCTTTATTAAAAAAATTTTTTTTCT [TGCATGCA_negctrl_site582],8.87 ± 0.45
13,ATTAAAAAAAAAAGTATACACACTTCTTAATGTCAA [CACACA_site1244],8.72 ± 0.52
14,AAAGGGGCATATATATGTACATATTATATATTTTGA [XGTACX_site2436],8.57 ± 0.33
15,ATTATCCATGCATTTACACACACACCCAAAAAAATT [CACACA_site4101],9.02 ± 0.48
16,AATACATTGTCAAATTGTACAAATTATAGAACTATT [XGTACX_site2222],8.73 ± 0.4
17,TGTTTTTATATATATGCACACAATGTACAAGTATAC [CACACA_site3529],9.01 ± 0.2
18,CCATAAAAAGGATACACACACACACCCACATATATA [CACACA_site903],8.71 ± 0.45
19,AAAGTCTCATTAAAATGTACAAAATTTTCAGCTGTA [XGTACX_site6296],8.36 ± 0.51
20,TATGTGAATATAATCACACACAATACGGAAACCCAC [CACACA_site2725],8.91 ± 0.52
21,TTATATATAAACATAAAAAGAAATATATTATGTATA [CACACA_negctrl_site667],8.3 ± 0.55
22,TAATTTTTAATTGTAGCATGCAGTATTTTTAAATAT [TGCATGCA_site140],9.21 ± 0.35

row,Sequence,gcPBM binding intensity (ln)
1,ATAATATTATTATAATGTACATATTTCGATATAAAT [XGTACX_site8808],8.61 ± 0.42
2,GATTATACAAAATATACACACGTGTAGACAAATATT [CACACA_site4785],8.89 ± 0.47
3,ATATTTAATGTTAATTGTACATATTATATATATATA [XGTACX_site6095],9.82 ± 0.14
4,ATATATATTAATAGGTGTACATATAAAGTGTTATGT [XGTACX_site5464],8.78 ± 0.2
5,AAAAAAATATATATTACACACATATATACCTATATA [CACACA_site5688],8.18 ± 0.47
6,TAATAATGCAACCTCTGTACACAACATTATATCCAT [XGTACX_site7596],8.93 ± 0.36
7,AAAAAAAAATTTTTAAAATTTAGAAAATTTAAAAAA [GTGCAC_negctrl_site649],8.02 ± 0.4
8,TATATATAAGCGTGTACACATTCTGAGTGTTGTATA [CACACA_site4502],8.75 ± 0.31
9,ATTGTCTTCTCATATACACACTTTTATGACTATCTT [CACACA_site5696],8.94 ± 0.44
10,TGTGTAATTATATATAAGGAGAAAGAATTCATTTTT [CACACA_negctrl_site670],8.44 ± 0.56
11,TATTGAAGTTATAAAGTGCAGATAAATATGAGTTAT [GTGCAC_site9945],8.99 ± 0.18
12,ACAAAAAATAATCAAAATGTATATATATAATATAAT [XGTACX_negctrl_site593],8.39 ± 0.31
13,AAATGCCATATAATTTTTCTTAAACATAATTGTATA [CACACA_negctrl_site1665],8.06 ± 0.54
14,AAAATAGCTGTATAGAGTACATATAAATAATGTTGT [XGTACX_site5692],8.47 ± 0.36
15,TAAAATAAAAGTGAAACACACAGTATTTTACAACAT [CACACA_site3811],8.47 ± 0.46
16,TGCAAAAAATTCCACACACACACACGCATATAAATA [CACACA_site6696],8.84 ± 0.25
17,ATATAATGACAAGTATAAGTATCACAAAGAAATAAA [CACACA_negctrl_site1403],8.86 ± 0.4
18,CCACTTTTTGAAGACACACACAAAAAAAAAAAAAAA [CACACA_site2551],8.15 ± 0.47
19,TTTTGAAGAAAATTCTTTTTTTTTTTTTTTTGTAAA [CACACA_negctrl_site102],7.61 ± 0.51
20,CAAGCTTTTTCCTTTACACACATTAATTATATATAT [CACACA_site1423],8.89 ± 0.52
21,ATAACAATTATTTGTCGACACACGTATATGTTATTT [CACACA_site1766],9.04 ± 0.71
22,CATTTTTCTATATGTGCATGTAAGATAAGAATAATT [TGCATGCA_site107],8.84 ± 0.18

row,Sequence,gcPBM binding intensity (ln)
1,TTTCGTCATTTTGTTTTTAATTCTACAATTTAGTTA [XGTACX_negctrl_site286],9.04 ± 0.26
2,TCATATAATATTTATATGCACACTTTTCTATATATA [CACACA_site4075],8.53 ± 0.38
3,ACTTACACATTTATTACACACATAAAGGAAAATTTT [CACACA_site1356],8.74 ± 0.36
4,TTAAAAAATAACAAGGTGCAAATAGGTTTATAAAAT,9.21 ± 0.32
5,ATATTTAAATGGATCACACATATATATATATATATA [CACACA_site5255],10.3 ± 0.3
6,CGCGAAGTAGCATTCACACACAGCAAAATATATATA [CACACA_site3495],8.68 ± 0.49
7,CACTAATAGTGGATTACACACATATATATGTATATA [CACACA_site2531],8.54 ± 0.3
8,TACTAAAACCCATACACACACATATATATAGTACCA [CACACA_site3184],8.61 ± 0.65
9,TTTTTAACATTTAAATGTACATGTTACAATTTAAAG [XGTACX_site8789],8.44 ± 0.29
10,AGAGACTTAGAAAACACACATACATAAGATAATTTA [CACACA_site2377],8.53 ± 0.43
11,TTTTTATTTTTATACATATAATATATTATGATTAAA [CACACA_negctrl_site214],8.5 ± 0.37
12,ACAGCATAATCATGCTGTACATTATTTTCTTAAGTA [XGTACX_site8456],8.11 ± 0.39
13,AGAGGCCAGCTTTCTCTTCTAAACATGTACAAAAAT [GTGCAC_negctrl_site98],8.63 ± 0.49
14,TGAGCACAAATACAGGTGCATATAAAATATATGACG,8.88 ± 0.29
15,AAAAAAATAAAATGTTCACACATTTCACAATTACTT [CACACA_site4859],8.09 ± 0.33
16,ATATATATATAGTGCACACATATAAAATATATATAA [CACACA_site2745],9.9 ± 0.071
17,TATAATATATATAGGAGTACGTATGTATATTTATAA [XGTACX_site3521],8.71 ± 0.35
18,TTTACAGATACTTGCTCACACATATGTATAAAAATA [CACACA_site4928],8.6 ± 0.39
19,ACATGAAACTATAAACGTACATACATACATATATAT [XGTACX_site5011],8.66 ± 0.25
20,ATATTTTATAATTTTACACACCATATAAAATAATTC [CACACA_site2797],8.52 ± 0.33
21,TATATATAAAACATATGTACATATATATATATATAT [XGTACX_site419],10.2 ± 0.24
22,AATAGTTAAATGTACACACTAACTACATGGAATATA [CACACA_site3262],8.61 ± 0.35

row,Sequence,gcPBM binding intensity (ln)
1,AAGTAAAAAAATAGCACACACACAAAAACACCCACA [CACACA_site1291],8.97 ± 0.47
2,AAAAAAAAAGGTACTACACACTATTATCAATAGAAA [CACACA_site91],8.54 ± 0.35
3,TACTTATTATGAAACACACACCAAAACTACAGAATA [CACACA_site6265],8.9 ± 0.52
4,CAAAATAAAAAATTCACACACATATAAATATAAATA [CACACA_site7065],8.54 ± 0.24
5,ATTTAATTTATTATGTGTACTTATTTAATTAAATTA [XGTACX_site3171],8.48 ± 0.21
6,CATATAATTATTGAAAGTACATACAAATAAAAAGAT [XGTACX_site6535],9.12 ± 0.39
7,ATATTTTTATTTAAATCACATCATTTTGTTTATTTG [CACACA_negctrl_site1056],8.64 ± 0.43
8,CTGATATATAGATGTAGTACATAAAAATGACGAATT [XGTACX_site5612],8.81 ± 0.38
9,TTATATATTTATAAATGTACATATAATTTTTTTATA [XGTACX_site4696],8.3 ± 0.32
10,TAAATATATTTATATTGTACATTTATGTTGATACCA [XGTACX_site228],8.31 ± 0.41
11,ATATATATATGTATATGTACATATATATACACATAT [XGTACX_site140],9.37 ± 0.12
12,ATATTTACCACTGTATGTACATATATAAAATATATC [XGTACX_site6373],8.81 ± 0.18
13,TATATATATAATATATGTACTGATATGCTATTTACT [XGTACX_site841],8.915 ± 0.021
14,TTTTGTGAATTTTAGATTTTTTAATACAAGAATATT [CACACA_negctrl_site606],8.14 ± 0.4
15,TAACACATATATTGTTGTACATTCAAACTGAAAAAT [XGTACX_site5565],8.58 ± 0.41
16,TTTTTTTTATTAAAAAGTACTAAACAAATTATATAT [XGTACX_site121],8.45 ± 0.33
17,CCCATGTAATGAACATGTACATAATAATTTATAAAT [XGTACX_site8687],9.23 ± 0.87
18,AGATGGAGAAAGTTATGTACACATATATAAATATGT [XGTACX_site6150],8.47 ± 0.3
19,ATATATATATATATGTGTACATATGTATATATATCT [XGTACX_site2930],10.1 ± 0.4
20,TATATACATATGTGATGTACATTTTTTGTAATATAA [XGTACX_site6985],8.52 ± 0.33
21,ATGTCTACAGTTTTTGCACACATATAAATAAAAAAA [CACACA_site3600],8.6 ± 0.45
22,ATTTTTTTTTTTTTTTTTTTTGAGAAGAACTTTTTC [CACACA_negctrl_site1019],8.05 ± 0.46

# Reference: the supplement of paper PMC11417369
